Assay results taken from the supplement of paper PMC12632987.
In all, about 1,800 sequences were measured (“median log2 fold change of GCK-ALFA target abundance (FLAG IP / Myc IP barcode read proportion)”: median about 0.14, lowest 2% from about -0.84 on). The list shows a part of the results.

T1: TRAF2, Q12933
T1 chain: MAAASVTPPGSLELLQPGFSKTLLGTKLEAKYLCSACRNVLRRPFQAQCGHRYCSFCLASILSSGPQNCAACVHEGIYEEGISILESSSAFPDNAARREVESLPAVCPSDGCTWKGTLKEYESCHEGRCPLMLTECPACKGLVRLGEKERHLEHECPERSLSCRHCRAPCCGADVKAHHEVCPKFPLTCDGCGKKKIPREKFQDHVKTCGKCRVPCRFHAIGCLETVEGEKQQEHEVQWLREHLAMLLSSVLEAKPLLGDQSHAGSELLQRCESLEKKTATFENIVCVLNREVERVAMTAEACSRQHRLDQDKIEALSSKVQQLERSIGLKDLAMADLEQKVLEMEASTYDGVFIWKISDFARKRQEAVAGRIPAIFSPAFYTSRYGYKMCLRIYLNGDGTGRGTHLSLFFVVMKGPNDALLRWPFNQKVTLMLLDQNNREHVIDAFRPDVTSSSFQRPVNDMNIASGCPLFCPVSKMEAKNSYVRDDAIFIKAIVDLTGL

B1: traf2_out_1_27_1003 (protein)
chain: SDEEFRELLRRANKEIGRATPEEQIEIIEEAVREALERGLDSPELVAVNLILSLGDRETRERAIERVEEVLREAGLSEERIELMRRRVRSGWERLEKLLA
B2: traf2_out_1_33_1033 (protein)
chain: AAAKERRSLQIANKAASELYKVVRKELEEIRKLLEEGASLEEIEKKIEEARKRVEKKAEEILKEVKATEDEETVNLVESVLTSLIEIFDRELEELLKEAK
B3: traf2_out_13_95_1092 (protein)
chain: SKKVAEEINKIADKMLDESLKLLEELLKIAKKKGKIEEEIEEAIRLAKYRSINEAIHLLKELAKKYPEFKEELEATIEKIEEIKRKAGKEVAKILKKEEE
B4: traf2_out_13_95_1056 (protein)
chain: TLELAKKINEIADKAEEEMLKVLKEAAAKVADDPEAKAVFEEAEKLVKTRGINEALHLLREAAKADPAHKALFEETIAKLEEIKRKTGKEVAKLIKEYEE
B5: traf2_out_17_162_1477 (protein)
chain: MSIEEELKKLKEELKEIKEKAKELEEKLEKLEEMSYEELTDLLVEASELRRKALQLAEEFKEMAPLIGEEEAKKLAEEAEEIAERLQRIANKIYKEIEKK
B6: traf2_out_17_162_1489 (protein)
chain: GELEERLKELKKELEELKKKLKELKEKLKDLKNKSKEELTDLLVEVSELRRRALELAEELKELYEKTGDEELKELIKEAEELAEELQRLANKIYEELLKK
B7: traf2_out_20_38_2047 (protein)
chain: KEEEEEKKYNELIRKAAREGDEEADRRLEELRAAGVSPEEILERTTEEAVEKLKSVGAEDNAERIRLRAAHYREEGTYLEGAERIIISAKVALAVQEYLK
B8: traf2_out_16_104_1409 (protein)
chain: SAERQARFDAIIAELNAIADELGRLANEIYKLMETASAADKEKLSDALVDASELRRRAREAAIAAEEARKTGGDLAEQEAALARLTAEAAAVKAKAAALK
B9: traf2_out_18_3_1931 (protein)
chain: SEEERKEVSDKIDEIVDDARARAERELERAREELPEKREEIDRLRAALEAGAAPFGILDALAELYEEAGKEEEAKEIEEYLSEKRKEMQELVDEYEKLIK
B10: traf2_out_20_3_2147 (protein)
chain: EELERELAEELERAKALLAEAAALADPETAARLEALRERLEASRALSPSDQLVVVSEVRREVRLLAQEARAAGDEELAALLEEAAAALNRAANLLMRIIE
B11: traf2_out_16_177_1445 (protein)
chain: ELSEVMDKLVIYSKIARAAELALEGREEEAKKELKEAEKEAKEAGDEEALKLIKEIRALIEANTPEAKKRLAKILKEVRKKANELAEKAEELLKERAKKE
B12: traf2_out_6_156_2422 (protein)
chain: AAEAILAEAKERIRREIAELAAASEERKIAHISRIAGAVYRALQRLREAGASPEELKAAGEELRATAEAEAARAGLPQDVRDLLLASIDAVVEVALAEAA
B13: traf2_out_15_48_1365 (protein)
chain: NREEYLAVMREVADRQIAKADEVAARLAELLPRASPEVRPGLEALRDAALAGAGLSTIRAALRALAKRADPELAAELNALADEVEAVRRESSRRVAEVEK
B14: traf2_out_20_3_2164 (protein)
chain: SELEKKLEEELERALKLLKKAAELSDEETKKKLKELIERLKESRSLSPSDRLVVVSEVRREVLLLAQKAKAEGKEELAKLLEEAAEELNRAMQLLYEIIE
B15: traf2_out_6_156_2452 (protein)
chain: TLEEIKAKTKEEIEKAIKELAKASPEKKISYINKIAGAFYRGLQAAREAGASLEELKAFAEELLKTAEEAAKKAGLDEETKNLLLSSLNAVAEVALEEAK
B16: traf2_out_6_166_2460 (protein)
chain: MSEIEKRIREIIKELSKYSVEVILKAFEIVAKEVNEEDARILRQLASAVRQAQKLGLPIETALTATVDGLITLGVSEERLLELLEKVLKKAKELEKEKKA
B17: traf2_out_11_155_752 (protein)
chain: EEKRKLLNEMNDKIMEIFDKAREEVDELAKKTAEKYPEHKEKIEKKMKETEKFSPKSYMLSMRDLFKELGLEEEAKKVEEIIEKTQKEASKIVIETEKKL
B18: traf2_out_1_27_1019 (protein)
chain: STEELRELIKETSRKIAAVGPEEAKKIVKEAIKYAHENKIGNPEVLAVTLFTMQMDPEMREAIKEAVIEAFKELGVPEERIERVRRRMDSAAERLDKLLA
B19: traf2_out_6_156_2436 (protein)
chain: SIEEILKKTKEELEKLIKELAAASEEKKIFYINKIAGTVYRALQELRDSGASIEELEKFAEEVREFVEKALKEAGLDEDTQNLVLSSLNAVFQVALESAR
B20: traf2_out_17_162_1577 (protein)
chain: EELERRLEELKKELEELEKELEELKKKLPDFENMSYEELTDELVRASELKRRARELAEELRELREKLGEEELEELVRRAEEIAEELQRIMNEIYKEIEKK
B21: traf2_out_18_117_1776 (protein)
chain: SEREKIIKELKEIAERLEKAASKLGKVVLENWDKLSPEEKSEAMDVLADLTEVRQEALELIIKIENGEVPVEEAKKRLEELKKRAEEAIEKAEKMIEKIK
B22: traf2_out_20_3_2054 (protein)
chain: EELLKELEEEEKKLRELIEEIEKLVDPETAEELREALERVEKARKEGLEEYLVALSELRRLLLRLAEEARAAGKEEVAALLEEAAEAAQRAMNIVMKIIE
B23: traf2_out_17_162_1580 (protein)
chain: SELEEKLKKLEEELKKLKEKLKELEEKLKKLKEMSKEELTDLLVEASEARRKALELAEELKKLKPEIGEEKATKLIEEAEKIAERFQKIANEIYKELEKK
B24: traf2_out_13_95_1095 (protein)
chain: SAEVAAKINAIADKMLDEVLKILEELLKKMEKAGKLVEEVKEALDLAEKRSINEAIHLLKELAKKYPEFKEEFEEAIKKIEEIKREAGREVAKILKEEEE
B25: traf2_out_20_38_2001 (protein)
chain: SAEEEEEEKLKKIIDVANEAYDEASKEIEELKAAGKSVEEIAEIVRAKVRELLTAAGLEEELEELLADIDRALSSPNALRLFARIRARAVALVKQKELNE
B26: traf2_out_18_5_1953 (protein)
chain: SREEELKEALKSAERILSKKPEIEAEAKKLGVEELYKKAVEDFTRALENGEDLAKISTKHAEELAKKIGDPEKAEDLTYEIRRYVSAEYAKEVLEEMLKA
B27: traf2_out_18_3_1935 (protein)
chain: KEEKLKEISEKIDEIVDEARAKAREALAELKERHPELAERAEELEALLDAGAGPFGILEEIAELYREAGDEEKAKEIEEFLKEKRKKMSELVDEYEKLLK
B28: traf2_out_19_16_1984 (protein)
chain: SMEKAEELIKKMKEYLKEALELAKEAVAKIDELSREELSDKLVEISELKRKAQEALQKALELLKDDPERQKELREEFDEKLDEINRLSTVLVNKLEELLK
B29: traf2_out_11_155_686 (protein)
chain: EKKREINNKLVDEMSAIADEAKAQVRAIAEATGAAHPEAAAALAATAEATAGHGLRSFAGSMAATFRALGQDDAAAQVEALLAEAQKKMNEAVKKAEKEL

Target: T1, TRAF2, Q12933
Assay: median log2 fold change of GCK-ALFA target abundance (FLAG IP / Myc IP barcode read proportion) (log2 ratio); each designed protein is fused to an ALFA-tag nanobody in HEK293 cells to bring the named protein to FLAG-tagged glucokinase (GCK); Myc marks an untargeted standard; higher = target protein stabilised (more abundant)
Conditions: target protein: 3xFLAG-MCP-GCK-ALFA reporter; HEK293 landing pad (RPLP)
Outline: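 Binders fused to an ALFA nanobody were recombined as a library into HEK293 landing-pad cells, which were induced with 2 μg mL^−1 doxycycline and then transfected to express a FLAG-tagged target and a Myc-tagged standard. After 48 h, circular RNA barcodes recovered by anti-FLAG and anti-Myc immunoprecipitation of lysates were reverse transcribed, amplified and sequenced. Each binder's target abundance is the median log2 ratio of FLAG to Myc barcode read proportions, from barcodes present at ≥10^−7 in both replicates, binders carrying ≥3 barcodes per replicate, a 10^−6 pseudocount and pooled replicates.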

Binder	median log2 fold change
B1	0.164
B2	-0.483
B3	-0.0309
B4	-0.0095
B5	0.0704
B6	0.361
B7	0.277
B8	0.264
B9	0.304
B10	0.226
B11	-0.0821
B12	0.0475
B13	-0.0186
B14	-0.157
B15	0.182
B16	0.469
B17	-0.198
B18	0.0707
B19	0.119
B20	0.0914
B21	0.289
B22	0.588
B23	0.0169
B24	-0.132
B25	-1.24
B26	-0.0294
B27	-0.346
B28	0.272
B29	0.159
